# Some of the results follow.
# B1: PhoQ; a variant is named by its letters at X, in order, P23837 (parent)
# chain: MKKLLRLFFPLSLRVRFLLATAAVVLVLSLAYGMVALIGYSVSFDKTTFRLLRGESNLFYTLAKWENNKLHVELPENIDKQSPTMTLIYDENGQLLWAQRDVPWLMKMIQPDWLKSNGFHEIEADVNDTSLLLSGDHSIQQQLQEVREDDDDAEMTHSVAVNVYPATSRMPKLTIVVVDTIPVELKSSYMVWSWFIYVLSANLLLVIPLLWVAAWWSLRPIEALAKEVRELEEHNRELLNPATTRELTSLVRNLNRLLKSERERYDKYRTTLTDLTHSLKTPLXXLQXXLRSLRSEKMSVSDAEPVMLEQISRISQQIGYYLHRASMRGGTLLSRELHPVAPLLDNLTSALNKVYQRKGVNISLDISPEISFVGEQNDFVEVMGNVLDNACKYCLEFVEISARQTDEHLYIVVEDDGPGIPLSKREVIFDRGQRVDTLRPGQGVGLAVAREITEQYEGKIVAGESMLGGARMEVIFGRQHSAPKDE
# Variants of: B1
# Test: enrichment ratio after two sorts for PhoP signalling (ratio (wild type AVST 3.29)); higher = more functional
# Conditions: with PhoP (E. coli)
row,Variant,enrichment ratio
1,QRRN,≤ 0.25
2,SHLA,3.56
3,CYLR,≤ 0.25
4,KYVC,≤ 0.25
5,IWIG,≤ 0.25
6,KYLS,≤ 0.25
7,EHMQ,≤ 0.25
8,DFGT,≤ 0.25
9,CSYF,≤ 0.25
10,AQLV,8.82
11,GSHY,≤ 0.25
12,THQL,5.81
13,VCTW,≤ 0.25
14,HHGF,≤ 0.25
15,QDSC,≤ 0.25
16,ERFM,≤ 0.25
17,KTAQ,≤ 0.25
18,AAPT,≤ 0.25
19,FFTT,≤ 0.25
20,LCNY,≤ 0.25
21,YQHN,≤ 0.25
22,TQYC,2.01
23,ETLC,≤ 0.25
24,NGKG,≤ 0.25
25,EDER,≤ 0.25

row,Variant,enrichment ratio
1,MDEG,≤ 0.25
2,RAHN,≤ 0.25
3,KMDC,≤ 0.25
4,FPDC,≤ 0.25
5,AWMA,≤ 0.25
6,TNHP,≤ 0.25
7,EDPW,≤ 0.25
8,QPYY,≤ 0.25
9,FIAC,≤ 0.25
10,PKLD,≤ 0.25
11,RSQF,≤ 0.25
12,KQFW,≤ 0.25
13,HFTW,≤ 0.25
14,TWYK,≤ 0.25
15,NFTV,≤ 0.25
16,YNAY,≤ 0.25
17,WPGE,≤ 0.25
18,YTHT,≤ 0.25
19,MEGH,9.36
20,AGWW,≤ 0.25
21,IVQR,≤ 0.25
22,TLED,≤ 0.25
23,VMYK,≤ 0.25
24,WSDR,≤ 0.25
25,IMHH,≤ 0.25

row,Variant,enrichment ratio
1,TREL,≤ 0.25
2,EVAD,≤ 0.25
3,KCLH,≤ 0.25
4,LLHI,≤ 0.25
5,LLHC,≤ 0.25
6,LSHN,≤ 0.25
7,PKFG,≤ 0.25
8,YFAY,≤ 0.25
9,AYDW,≤ 0.25
10,FQWY,≤ 0.25
11,NMTN,≤ 0.25
12,DECF,≤ 0.25
13,VTMR,≤ 0.25
14,THQW,≤ 0.25
15,HFRP,≤ 0.25
16,KRWP,≤ 0.25
17,PRND,≤ 0.25
18,MGCA,≤ 0.25
19,RSVC,≤ 0.25
20,DTCF,≤ 0.25
21,DWCM,≤ 0.25
22,WPCI,≤ 0.25
23,LGEI,≤ 0.25
24,YICN,≤ 0.25
25,TEWP,≤ 0.25

row,Variant,enrichment ratio
1,ECAG,≤ 0.25
2,HPCL,≤ 0.25
3,AGPI,≤ 0.25
4,EMCT,≤ 0.25
5,IRDM,≤ 0.25
6,QDYF,≤ 0.25
7,SAAG,14.1
8,SMQQ,≤ 0.25
9,RNGG,≤ 0.25
10,AFYN,≤ 0.25
11,SYCC,≤ 0.25
12,SAQT,≤ 0.25
13,RCMY,≤ 0.25
14,FYNY,≤ 0.25
15,FGAE,≤ 0.25
16,PTPP,≤ 0.25
17,MVGD,≤ 0.25
18,MRYL,≤ 0.25
19,AFDW,≤ 0.25
20,EVDN,≤ 0.25
21,EGSG,≤ 0.25
22,FKWA,≤ 0.25
23,WAVM,≤ 0.25
24,TALL,12
25,FWIG,≤ 0.25

row,Variant,enrichment ratio
1,LCKQ,≤ 0.25
2,TPPT,≤ 0.25
3,ELFT,≤ 0.25
4,TGHR,≤ 0.25
5,VGHN,≤ 0.25
6,KGNR,≤ 0.25
7,EISK,≤ 0.25
8,VPAW,≤ 0.25
9,SKTL,10.2
10,DDYI,≤ 0.25
11,QCIM,≤ 0.25
12,FPNN,≤ 0.25
13,MQDW,≤ 0.25
14,WGKI,≤ 0.25
15,SMST,13.1
16,YFAR,≤ 0.25
17,NQAR,≤ 0.25
18,KRLT,≤ 0.25
19,FSSS,≤ 0.25
20,IFDT,≤ 0.25
21,WEWI,≤ 0.25
22,HDSV,≤ 0.25
23,MRIF,≤ 0.25
24,DTDW,≤ 0.25
25,MGMI,5.28

row,Variant,enrichment ratio
1,HKCC,≤ 0.25
2,VVPL,≤ 0.25
3,PSYQ,1.11
4,PEHI,≤ 0.25
5,VGWD,0.432
6,ISIK,≤ 0.25
7,LTYL,0.587
8,ASKI,≤ 0.25
9,DTFH,≤ 0.25
10,FAPM,0.451
11,DPAY,≤ 0.25
12,MFSG,≤ 0.25
13,YFEW,≤ 0.25
14,ERAH,≤ 0.25
15,YFNL,≤ 0.25
16,QNAI,≤ 0.25
17,EFTA,≤ 0.25
18,SVHM,≤ 0.25
19,FPHS,≤ 0.25
20,VWCF,≤ 0.25
21,KKGN,≤ 0.25
22,KGHH,≤ 0.25
23,SSMF,12.7
24,RTYE,≤ 0.25
25,VFPA,≤ 0.25

row,Variant,enrichment ratio
1,EQAC,≤ 0.25
2,AIRG,≤ 0.25
3,LIVL,≤ 0.25
4,FWMY,≤ 0.25
5,KPRR,≤ 0.25
6,LVMY,≤ 0.25
7,MFWR,≤ 0.25
8,WKMH,≤ 0.25
9,KYHM,≤ 0.25
10,KQSW,≤ 0.25
11,HTVG,≤ 0.25
12,FGPG,≤ 0.25
13,ERAF,≤ 0.25
14,HLVG,≤ 0.25
15,FWWN,≤ 0.25
16,WAFC,≤ 0.25
17,EAHF,≤ 0.25
18,FVCI,0.403
19,DFHF,≤ 0.25
20,AQSN,8.17
21,GYSK,≤ 0.25
22,YSRP,≤ 0.25
23,FGCY,≤ 0.25
24,YHNE,≤ 0.25
25,LGPD,≤ 0.25

row,Variant,enrichment ratio
1,GQTQ,≤ 0.25
2,VQWS,≤ 0.25
3,FQFW,≤ 0.25
4,VTPE,≤ 0.25
5,LNVK,≤ 0.25
6,TQHG,2.39
7,HAPA,≤ 0.25
8,DKRA,≤ 0.25
9,EELT,≤ 0.25
10,TDYE,≤ 0.25
11,QYHQ,≤ 0.25
12,FNIQ,≤ 0.25
13,YKKS,≤ 0.25
14,ITMM,17.7
15,DCKL,≤ 0.25
16,NSYQ,≤ 0.25
17,PQTL,≤ 0.25
18,HSDQ,≤ 0.25
19,MIRI,≤ 0.25
20,GMAD,≤ 0.25

# — a collection of fitness landscapes (doi:10.1126/science.1257360)
